The source gives no read counts; variants with many changes may rest on few reads.
B1: LINE1-full (parent)
chain: UACGUAGGUGGUUUUCCCCUGAUAGUGCUAAGGGGGCCUGGAAGUUUGGACUGGGCAGAGCUCAACACAGCGUGGCAAAGUGGCUGUGGCUAGACUGCCUCUCUGGAUUCCUCGUCACUCAGCAGGGCAUCUCUGAGAGAAAUGCC

Variants of: B1
Test: self-cleavage, relative activity (ratio to wild type); higher = more cleavage; in vitro, sequencing; the parent is a self-cleaving ribozyme

| Variant | self-cleavage |
| --- | --- |
| UACGUAGGUGGUUUUCCCCUGAUAGUGCUAAGGGGGCCCGGAAGUUGGGACUGGGCAGAGCUCAACACAGCGUGGCUAAGUGGCUGUGGCUAGACUGCCUCUCUGGACUCCUCGUCACUCAGCAGGGUAUCUCUGAGAGAAAUGCC [U39C U47G A77U U108C C128U] | 1.46 |
| UACGUAGGUGGUUUUCCCCUGAUAAUGCUAAGGGGGCCUGGAAGUUUGGACUGGGCAGAGCUCAACACAGCGUGGCAAAGUGGCUGUGGCUAGACUGCCACUCCGGACUCCUCGUCACUCAGCAGGGCGUCUCUGAGAGAAAUGCC [G25A U100A U104C U108C A129G] | 1.31 |
| UACGUAGGUGGUUUUCCCCUGAUAGUGCUAAGGGGGCCUGGAGGUUUGGAAUGGGCAGAGCUCUACACAGCGUGGCAAAGUGGCUGUGGCUAGACCGCCUCUCUGGAUUCCUCGUCACUCAGCAGGGCAUCUCUGAGGGAAAUGCC [A43G C51A A64U U96C A138G] | 0.12 |
| UACGUAGGCGGUUUCCCCCUGAUAGUGCUAAGGGGGCCUGGAAGUUUGGACUGGGCAGAGCUCAACACAGCGCGGCAAAGUGGCUGUGGCUAGACUGCCUCUCUGGAUUCCUCGUCACUCAGCAGGGCAUCUCUGAGAGAAAUGCC [U9C U15C U73C] | 1.31 |
| CACGUAGGUGAUUUUCCCCUGAUAGUGCUAAGGGGGCCUGGAAGUUUGGACUGGGCAGAGCUCAACACAGCGUGGCUAAGUGGCUGUGGCUAGACUGCCUCUCUGGAUUCCUCGUCACUCAGCAGGGCAUCUCUGAGAGAAAUGCC [U1C G11A A77U] | 1.1 |
| UACGUAGGUGGUUUUCCCCUGAUAGUGCUAAGGGGGCCUGGAAGUUUGGACCGGGCAGAGCACAACACAGCGUGGCAAAGUGGCUGUGGCUAGACUGCCUCUCUGGAUUCCUCGCCACUCAGCAGGGCAUCUCUGAGAGAAAUGCC [U52C U62A U115C] | 0.08 |
| UACGUAGGUGGUUCUCCCCUGAUAGUGCUAAGGGGGCCUGGAAGUUUGGACUGGGCAGAGCUCAACACAGCGUGGCAAAGUGGCUGUGGCUAGACUGCCUCUCUGGAUUCCUCGUCACCCAGCGGGGCAUCUCUGAGAGGAAUGCC [U14C U119C A124G A140G] | 0.71 |
| UACGUAGGUGGUUCUCCCCUGAUAGUGCUAAGGGGGCCUGGAAGUUUGGACUGGGCAGAGCUCAACACAGCGCGGCGAAGUGGCUGUGGCUAGACUGCCUCACUGGAUUCCUCGACACUCAGCAGGGCAUCUCUGAGAGAAUCGCC [U14C U73C A77G U102A U115A A142U U143C] | 1.02 |
| UACGUAGGUGGCUUUCCCCUGAUAGUGCUAAGGGGGCCUGGAAGUUUGGACCGGGCAGAGCCCAACACAGCGUGGCAAAGUGGCUGUGGCUAGACUGCCUCUCUGGAUUCCUCGUCACUCAGCAGGGCAUCCCUGAGAGAAAUGCC [U12C U52C U62C U132C] | 0 |
| UACGUAGGUGGUUUUCCCCUGAUAGUGCUAAGGGGGCCUGGGAGUUCGGACUGGGCAGAGCUCAACACAGCGUGGCAAAGUGGCUGUGGCUAGACUGCCUCUCUGGAUUCCUCGUCACUCAGCAGGGCAUCUCUGAGAGACAUGCC [A42G U47C A141C] | 0.92 |
| UACGUAGGUGGUUUUCCCCUGAUAGUGCUAAGGGGGCCUGGAAGUUUGGACUGGGCAGAGCUCAACACAGCGUGGCAAAGUGGCUGUGGCUAGACUGCCUCUCUGGAUUUCACGUCACCCAGCAGGGCAUCUCUGAGAGAAAUGUC [C110U U112A U119C C145U] | 1.49 |
| UACGUAGGUGGUUUUCCCCUGAUAGUGCUAGGGGGGCCUGGAAGUUUGGACUGGGCAGAGCUCAACACAGCGUGGCAAGGUGGCUGUGGCUAGACUGCCUCUCUGGAUCCCUCGUCACUCAGCAGGGCAUCUCUGAGAGAAAUGCC [A31G A79G U109C] | 1.64 |
| UACGUAGGAGGUUUUCCCCUGAUAGUGCUAAGGGGGCCUGGAAGUUUGGACUGGGCAGAGCUCAGCACAGCGUGGCAAAGUGGCUGUGGCUAGACUGCCUCUCUGGAUUCCUCGUCACUCAGCAGGGCACCUCUGAGAGAAAUGCC [U9A A65G U130C] | 0.22 |
| UACGUAGGUGGUUUUCCCCUGAUAGUGCUAAGGGGGCCUGGAAGUUUGGGCUGGGCAGAGCUCUACACAGCGUGGCAAAGUGGCUGUGGCUAGACUGCCUCUCUGGAUUCCUCGUCACUCAGCGGGGCAUCUCAGAGAGAAAUGCC [A50G A64U A124G U134A] | 0.1 |
| UACGUAGGUGGUUUUCCCCUGAUAGUGCUAAGGGGGCCUGGGAGUUUGGACUGGGCUGAGCUCAACACAGCGUGGCAAAGUGGCUGUGGCUAGACUGCCUCUCUGGAUUCCUCGUCGCUCAGCAGGGCAUCUCUGAGAGAAAUGCC [A42G A57U A117G] | 0.08 |
| UACGUAGGUGGUUUUCCCCUGAUAGUGCUAAGGGGGCCUGGAGGUUUGGACUGGGCUGAGCUCAACACAGCGUGGCAAAGUGGCUGUGGCUAGACUACCUCUCUGGAUUCCUCGUCACUCAGCAGGGCAUCUCUGAGAGAAAUGCC [A43G A57U G97A] | 0.06 |
| UACGCAGGUGGUUUUCCCCUGAUAGUGCUAAGGGGGCCUGGAAGUUUAGACUGGGCAGAGCUCAACACAGCGUGGCAAAGUGGCUGUGGCUAGACUGCCUCUCUGGAUUCCUCGUCACUCAGCAGGGCAUCUCUAAGAGAAAUGCC [U5C G48A G135A] | 0.73 |
| UACGUAGGUGGUCUUCCCCUGAUAGUGCUAAGGGGGCCUGGAAGUUUGGACUGGGCAGAGCUCAACACAGCGUGGCAAAGUGGCUGUGGCUAGACUGCCUCUCUGGAAUCCUCGACACUCAGCAGGGCAUCUCUGAGAGAAGUGCC [U13C U108A U115A A142G] | 1.41 |
| UACGUAGGUGGUUUUCCCCUGAUAGUGCUAAGGGGGCCUGGAAGUUUGGACUGGGCAGAGCUCAACACAGCGUGGCAAAGAGGCUGUGGCUAGACUGCCUCUCUGGAUCCCUCGUCACUCAGCAGGGCAUCCCUGAGAGAAAUGCC [U81A U109C U132C] | 1.92 |
| UACGUAGGUGGUUUUCCCCUGAUAGUGCUAAGGGGGCCUGGGAGUUUGGACUGGGCAGAGCUCAACACAGCGUGGCAAAGUGGCUGUGGCUAGACUGCCUUUCUGGAUUCCUCGUCACUCAGCAGGGCCUCUCUGAGAGAAACGCC [A42G C101U A129C U143C] | 1.88 |

| Variant | self-cleavage |
| --- | --- |
| UACGUAGGUGGUUUUUCCCUGAUAGUGCUAAGGGGGCCUGGAAGUUUGGACUGGGCAGAGCUCAACACAGCGUGGCAGAGUGGCUGUGGCUAGACUGCCUCCCCGGAUUCCUCGUCACUCAGCAGGGCAUCUCUGAGAGAAAUGCC [C16U A78G U102C U104C] | 2.12 |
| UACGUAGGUGGUUUUCCCCUGAUAGUGCUAAGGGGGCCUGGAAGUUUGGACUGGGCAGAGCUCAACACAGCGCGGCAAAGUGGCUGGGGCUAGACUGCCUCUCUGGAUUCCUCGUCACUCAGCAGGGCAUCUCUGAGAGAAGUGCC [U73C U87G A142G] | 0.47 |
| UACGUAGGUGGUUCUCCCCUGAUAGUGCUAAGGGGGCCUGGAAGUUUGGACUGGGCAGUGCUCAACACAGCGUGGCAAAGUGGCUGUGGCUAGACUGCCUCUCUGGAUUCCUCGUCACUCAGCAGGGCAUCUCUGAGAGAAACGCC [U14C A59U U143C] | 1.07 |
| UACGCAGGUGGUUUUCCCCUGAUAGUGCUAAGGGGGCCUGGGGGUUUGGACUGGGCAGAGCUCAACACAGCGUGGCAAAGUGGCAGUGGCUAGACUGCCUCUCUGGAUUCCUCGUCACUCAGCAGGGCAUCUCUGAGAGAAAUGCC [U5C A42G A43G U85A] | 0.69 |
| UACGUAGGUGGUUUUCCCCUGAUAGUGCUAAGGGGGCCUGGAAGUUUGGACUGGGCUGAGCUCAACACAGCGUGGCAAAGUGGCUGUGGCUAGGCUGCCUCUCUGGAUUCCUCGUCACUCAGCAGGGCAUCUCUGAGAGAAGUGCC [A57U A94G A142G] | 0.45 |
| UACGUAGGUGGUUUUCCCCUGAUAGUGCUAAGGGGGCCUGGAAGUUUGGACUGGGCAGAGCUCAACACAGCGUGGCAAAGCGGCUGUGGCUAGACUGCCCCACUGGAUUCCUCGUCACUCAGCAGGGCAUCUCUGAGAGAAAUGCC [U81C U100C U102A] | 1.95 |
| UACGUAGGUGGUCUUCCCCCGAUAGCGCUAAGGGGGCCUGGAGGUUUGGACUGGGCAGAGCUCAACACAGCGUGGCAAAGUGGCUGUGGCUAGACUGCCUCUCUGGAUUCCUCGUCACUCAGCAGGGCAUCUCUGAGAGAAAUGCC [U13C U20C U26C A43G] | 0.66 |
| UACGUAGGUGGUUUUCCCCUGAUAGUGCUAUGGGGGGCUGGAAGUUGGGACUGGGAAGAGCUCAACACAGCGUGGCAAAGUGGCUGUGGCUAGACUGCCCCUCUGGAUUCCUCGUCACUCAGCAGGGCAUCUCCGAGAGAAAUGCC [A31U C37G U47G C56A U100C U134C] | 0.29 |
| UACGUAGGUGGUUUUCCCCUGAUAGUGCUAAGGGGGCCUGGAAGUUUGGACUGGGCAGAGCUCAACACAGCGUGGCAAUGUGGCUGUGGCUAGACUGCCUCUCUGGAUUACUCGUCACUCAGCAGGGCAUCUCUGAGAGAAACGCC [A79U C110A U143C] | 0.8 |
| UACGUAGGUGGUUUUCCCCUGACAGCGCUAAGGGGGCCUGGAAGUUUGGACUGGGCGGAGCUCAACACAGCGUGGCAAAGUGGCUGUGGCUAGACUGCCUCUCUGGAUUCCUCGUCACCCAGCAGGGCAUCUCUGAGAGUAAUGCC [U23C U26C A57G U119C A140U] | 0 |
| UACGUAGGUGGUUUACCCCUGAUAGUGCUAAGGGGGCCUGGAAGUUUGGACUGGGCAGAGCUCAACACAGCGCGGCAAAGUGGCUGUGGCUAGACUGCCUCUCUGGAUUCCUCGUCACUCAGCAGGGCUUCUCUGAGAGAAGUGCC [U15A U73C A129U A142G] | 1.03 |
| UACGUAGGUGGUCUUCCCCUGAUAGUGCUAAGGGGGCCUGGAAGUUUGGACUGGGCAGAGCUCAACACAGCGUGGCAAAGUGGCUGAGGCUAGACUGCCUCUCUGGAUUCCUCGUCACUCAGCAGGGCACCUCUGAGAGAAAUGCC [U13C U87A U130C] | 0.22 |
| UACGUAGGUGGUUUUCCCCCGAUAGUGCUAAGGGGGCCUGGAAGUUUGGACUGGGCAGUGCUCAACUCAGCGUGGCAAAGUGGCUGUGGCUAGACUGCCUCUCUGGACUCCUCGUCACUCAGCAGGGCAUCUCUGAGAGAAAUGCC [U20C A59U A67U U108C] | 0.29 |
| UACGUAGGUGGUUUCCCCCUGAUAGUGCUAAGGGGGCCUGGAAGUUUGGACUGGGCGGAGCUCUACACAGCGUGGCAAAGUGGCUGUGGCUAGACUGCCUCUCUGGACUCCUCGUCACUCAGCAGGGCAUCUCUGAGAGAAAUGCC [U15C A57G A64U U108C] | 0.68 |
| UACGUAGGUGGUUUCCCCCUGAUAGUGCUAAGGGGGCCUGGAAGUUUGGACUGGGCGGAGCUCAACACAGCGUGGCAAAGUGGCUGUGGCUAGACUUCCUCUCUGGAAUCCUCGUCACUCAGCAGGGCAUCUCUGAGAGAAAUGCC [U15C A57G G97U U108A] | 0.04 |
| UACGUAGGUGGUUUUCCCCUGAUAGUGCUAAGGGGGCCUGGAAGUUUGGACUGGGCAGAGCUCAACACAGCGUGGCAGAGUGGCUGUGGCUAGACUGCCUCUCUGGAUUCCUCGUCACUCAGCAGGGCAUCCCUGGGAGAAAUGCC [A78G U132C A136G] | 0.31 |
| UACGUAGGUGGGUUUCCCCUGAUAGUGCUAAGGGGGCCCGGAAGUUUGGACUGGGCAGAGCUCAACACAGCGUGGCAAAGAGGCUGUGGCUAGACUGCCUCUCUGGAUUCCUCGUCACUCAGCAGGGCAUCUCUGUGAGAAAUGCC [U12G U39C U81A A136U] | 1.76 |
| UACGUAGGUGGUUUUCCCCCGAUAGUGCUAAGGGGGCCUGGAAGUUUGGACUGGGCAGAGCUCAACACAGCGUGGCAAAGUGGCUGUGGCUAGACUGCCUCUCUGGAUUCCUCGCCACUCGGCAGGGCAUCUCUGAGAGAAAUGCC [U20C U115C A121G] | 1.31 |
| UACGUAGGUGGUUUUCCCCUGAUAGUGCUAAGGGGGCCUGGAAGUUCGGACUGGGCAGAGUUCAACACAGCGUGGCAAAGUGGCUGCGGCUAGACUGCCUCUCUGGAUUCCUCGUCACUCAGCAGGGCUUCUCUGAGAGAAAUGCC [U47C C61U U87C A129U] | 0.02 |

— the RNAGym collection of RNA variant scans (doi:10.7554/elife.90254)
